Source: patent US20260263442A1, “METHOD FOR TREATING L-DOPA-INDUCED DYSKINESIA USING BEFIRADOL” (Neurolixis, Inc., priority 2023, published 2026)

Test system: patients with moderate to severe L-DOPA-induced dyskinesia (LID) in Parkinson's disease
Test: Adverse events, Phase 2a study of NLX-112 versus placebo

In the case of `Cc1ccc(CNCC2(F)CCN(C(=O)c3ccc(F)c(Cl)c3)CC2)nc1` [NLX-112], the “AE causality: Unlikely Related, subjects n (%)” value (down-titration, N = 15) is reported as 2 (13) n (%), the “AE severity: Death, events m” value (down-titration, N = 15) is reported as 0 and the “AE severity: Death, subjects n (%)” value (down-titration, N = 15) is reported as 0 n (%). The “AE severity: Life-Threatening, events m” value (down-titration, N = 15) was 0, the “AE severity: Life-Threatening, subjects n (%)” value (down-titration, N = 15) was 0 n (%) and the “AE severity: Mild, events m” value (down-titration, N = 15) was 3. The “AE severity: Mild, subjects n (%)” value (down-titration, N = 15) was 1 (6.7) n (%), the “AE severity: Moderate, events m” value (down-titration, N = 15) was 3 and the “AE severity: Moderate, subjects n (%)” value (down-titration, N = 15) was 3 (20) n (%). For the same compound, the “AE severity: Severe, events m” value (down-titration, N = 15) was 0, the “AE severity: Severe, subjects n (%)” value (down-titration, N = 15) was 0 n (%) and the “Any AE leading to WFS, events m” value (down-titration, N = 15) was 0. The “Any AE leading to WFS, subjects n (%)” value (down-titration, N = 15) was 0 n (%), the “Any AE leading to death, events m” value (down-titration, N = 15) was 0 and the “Any AE leading to death, subjects n (%)” value (down-titration, N = 15) was 0 n (%). For the same compound, the “Any AE, events m” value (down-titration, N = 15) was 6, the “Any AE, subjects n (%)” value (down-titration, N = 15) was 4 (27) n (%) and the “Any SAE, events m” value (down-titration, N = 15) was 0. For the same compound, the “Any SAE, subjects n (%)” value (down-titration, N = 15) was 0 n (%), the “Back pain, events m” value (down-titration, N = 15) was 1 and the “Back pain, subjects n (%)” value (down-titration, N = 15) was 1 (6.7) n (%). For the same compound, the “Dissociation, events m” value (down-titration, N = 15) was 0, the “Dissociation, subjects n (%)” value (down-titration, N = 15) was 0 n (%) and the “Dizziness, events m” value (down-titration, N = 15) was 0. For the same compound, the “Dizziness, subjects n (%)” value (down-titration, N = 15) was 0 n (%), the “Dyskinesia, events m” value (down-titration, N = 15) was 0 and the “Dyskinesia, subjects n (%)” value (down-titration, N = 15) was 0 n (%). The “Fall, events m” value (down-titration, N = 15) was 0, the “Fall, subjects n (%)” value (down-titration, N = 15) was 0 n (%) and the “Fatigue, events m” value (down-titration, N = 15) was 0. The “Fatigue, subjects n (%)” value (down-titration, N = 15) was 0 n (%), the “Headache, events m” value (down-titration, N = 15) was 1 and the “Headache, subjects n (%)” value (down-titration, N = 15) was 1 (6.7) n (%). For the same compound, the “Insomnia, events m” value (down-titration, N = 15) was 1, the “Insomnia, subjects n (%)” value (down-titration, N = 15) was 1 (6.7) n (%) and the “Nausea, events m” value (down-titration, N = 15) was 1. For the same compound, the “Nausea, subjects n (%)” value (down-titration, N = 15) was 1 (6.7) n (%), the “Orthostatic hypotension, events m” value (down-titration, N = 15) was 0 and the “Orthostatic hypotension, subjects n (%)” value (down-titration, N = 15) was 0 n (%). The “Parkinsonism, events m” value (down-titration, N = 15) was 0, the “Parkinsonism, subjects n (%)” value (down-titration, N = 15) was 0 n (%) and the “Restless legs syndrome, events m” value (down-titration, N = 15) was 0. The “Restless legs syndrome, subjects n (%)” value (down-titration, N = 15) was 0 n (%), the “SAE: CA or BD, events m” value (down-titration, N = 15) was 0 and the “SAE: CA or BD, subjects n (%)” value (down-titration, N = 15) was 0 n (%). For the same compound, the “SAE: ILT, events m” value (down-titration, N = 15) was 0, the “SAE: ILT, subjects n (%)” value (down-titration, N = 15) was 0 n (%) and the “SAE: OMISE, events m” value (down-titration, N = 15) was 0. The “SAE: OMISE, subjects n (%)” value (down-titration, N = 15) was 0 n (%), the “SAE: PSD/I, events m” value (down-titration, N = 15) was 0 and the “SAE: PSD/I, subjects n (%)” value (down-titration, N = 15) was 0 n (%). For the same compound, the “SAE: RPH, events m” value (down-titration, N = 15) was 0, the “SAE: RPH, subjects n (%)” value (down-titration, N = 15) was 0 n (%) and the “Vertigo, events m” value (down-titration, N = 15) was 0. For the same compound, the “Vertigo, subjects n (%)” value (down-titration, N = 15) was 0 n (%), the “Vomiting, events m” value (down-titration, N = 15) was 0 and the “Vomiting, subjects n (%)” value (down-titration, N = 15) was 0 n (%). The “Infections and infestations (system organ class), events m” value (human, in vivo, 8 weeks) was 5, the “Infections and infestations (system organ class), subjects n (%)” value (human, in vivo, 8 weeks) was 3 (17%) n (%) and the “Respiratory tract infection, events m” value (human, in vivo, 8 weeks) was 1. For the same compound, the “Respiratory tract infection, subjects n (%)” value (human, in vivo, 8 weeks) was 1 (5.6%) n (%), the “Urinary tract infection, events m” value (human, in vivo, 8 weeks) was 2 and the “Urinary tract infection, subjects n (%)” value (human, in vivo, 8 weeks) was 1 (5.6%) n (%). For the same compound, the “Most common AEs reported by patients on NLX-112” value (in vivo) was “nausea, parkinsonism and headache”, the “Patients with AEs that led to dose reductions or dose interruptions” value (in vivo) was 4 and the “Patients who withdrew consent due to AEs and prematurely discontinued” value (on and off phenomenon, vomiting and stress, possibly related) was “One”. For the same compound, the “Proportion of patients experiencing dizziness” value (same as the placebo group) was 11%, the “Back pain, events m” value (stable dosing, N = 15) was 0 and the “Back pain, subjects n (%)” value (stable dosing, N = 15) was 0 n (%). The “Dissociation, events m” value (stable dosing, N = 15) was 1, the “Dissociation, subjects n (%)” value (stable dosing, N = 15) was 1 (6.7) n (%) and the “Dizziness, events m” value (stable dosing, N = 15) was 0. The “Dizziness, subjects n (%)” value (stable dosing, N = 15) was 0 n (%), the “Dyskinesia, events m” value (stable dosing, N = 15) was 0 and the “Dyskinesia, subjects n (%)” value (stable dosing, N = 15) was 0 n (%). The “Fall, events m” value (stable dosing, N = 15) was 1, the “Fall, subjects n (%)” value (stable dosing, N = 15) was 1 (6.7) n (%) and the “Fatigue, events m” value (stable dosing, N = 15) was 1. For the same compound, the “Fatigue, subjects n (%)” value (stable dosing, N = 15) was 1 (6.7) n (%), the “Headache, events m” value (stable dosing, N = 15) was 1 and the “Headache, subjects n (%)” value (stable dosing, N = 15) was 1 (6.7) n (%). For the same compound, the “Insomnia, events m” value (stable dosing, N = 15) was 0, the “Insomnia, subjects n (%)” value (stable dosing, N = 15) was 0 n (%) and the “Nausea, events m” value (stable dosing, N = 15) was 1. The “Nausea, subjects n (%)” value (stable dosing, N = 15) was 1 (6.7) n (%), the “Orthostatic hypotension, events m” value (stable dosing, N = 15) was 2 and the “Orthostatic hypotension, subjects n (%)” value (stable dosing, N = 15) was 2 (13) n (%). The “Parkinsonism, events m” value (stable dosing, N = 15) was 0, the “Parkinsonism, subjects n (%)” value (stable dosing, N = 15) was 0 n (%) and the “Restless legs syndrome, events m” value (stable dosing, N = 15) was 1. For the same compound, the “Restless legs syndrome, subjects n (%)” value (stable dosing, N = 15) was 1 (6.7) n (%), the “Vertigo, events m” value (stable dosing, N = 15) was 0 and the “Vertigo, subjects n (%)” value (stable dosing, N = 15) was 0 n (%). For the same compound, the “Vomiting, events m” value (stable dosing, N = 15) was 0, the “Vomiting, subjects n (%)” value (stable dosing, N = 15) was 0 n (%) and the “AE action: Dose Not Changed, events m” value (steady state, N = 15) was 9. The “AE action: Dose Not Changed, subjects n (%)” value (steady state, N = 15) was 7 (47) n (%), the “AE action: Dose Reduced, events m” value (steady state, N = 15) was 1 and the “AE action: Dose Reduced, subjects n (%)” value (steady state, N = 15) was 1 (6.7) n (%). The “AE action: Drug Interrupted, events m” value (steady state, N = 15) was 0, the “AE action: Drug Interrupted, subjects n (%)” value (steady state, N = 15) was 0 n (%) and the “AE action: Not Applicable, events m” value (steady state, N = 15) was 1. The “AE action: Not Applicable, subjects n (%)” value (steady state, N = 15) was 1 (6.7) n (%) and the “AE causality: Possibly Related, events m” value (steady state, N = 15) was 7.
